Test results reported in publication PMC8555654 (Molecular neurobiology, 2021).

How the values were obtained:
Test in all cases: co-IP
NrCAM mutant Asp82Arg = molecular target: T1, NrCAM mutant Asp82Arg (mouse, UniProt Q810U4 30-1256, Asp^82Arg)
T1 sequence (looked up): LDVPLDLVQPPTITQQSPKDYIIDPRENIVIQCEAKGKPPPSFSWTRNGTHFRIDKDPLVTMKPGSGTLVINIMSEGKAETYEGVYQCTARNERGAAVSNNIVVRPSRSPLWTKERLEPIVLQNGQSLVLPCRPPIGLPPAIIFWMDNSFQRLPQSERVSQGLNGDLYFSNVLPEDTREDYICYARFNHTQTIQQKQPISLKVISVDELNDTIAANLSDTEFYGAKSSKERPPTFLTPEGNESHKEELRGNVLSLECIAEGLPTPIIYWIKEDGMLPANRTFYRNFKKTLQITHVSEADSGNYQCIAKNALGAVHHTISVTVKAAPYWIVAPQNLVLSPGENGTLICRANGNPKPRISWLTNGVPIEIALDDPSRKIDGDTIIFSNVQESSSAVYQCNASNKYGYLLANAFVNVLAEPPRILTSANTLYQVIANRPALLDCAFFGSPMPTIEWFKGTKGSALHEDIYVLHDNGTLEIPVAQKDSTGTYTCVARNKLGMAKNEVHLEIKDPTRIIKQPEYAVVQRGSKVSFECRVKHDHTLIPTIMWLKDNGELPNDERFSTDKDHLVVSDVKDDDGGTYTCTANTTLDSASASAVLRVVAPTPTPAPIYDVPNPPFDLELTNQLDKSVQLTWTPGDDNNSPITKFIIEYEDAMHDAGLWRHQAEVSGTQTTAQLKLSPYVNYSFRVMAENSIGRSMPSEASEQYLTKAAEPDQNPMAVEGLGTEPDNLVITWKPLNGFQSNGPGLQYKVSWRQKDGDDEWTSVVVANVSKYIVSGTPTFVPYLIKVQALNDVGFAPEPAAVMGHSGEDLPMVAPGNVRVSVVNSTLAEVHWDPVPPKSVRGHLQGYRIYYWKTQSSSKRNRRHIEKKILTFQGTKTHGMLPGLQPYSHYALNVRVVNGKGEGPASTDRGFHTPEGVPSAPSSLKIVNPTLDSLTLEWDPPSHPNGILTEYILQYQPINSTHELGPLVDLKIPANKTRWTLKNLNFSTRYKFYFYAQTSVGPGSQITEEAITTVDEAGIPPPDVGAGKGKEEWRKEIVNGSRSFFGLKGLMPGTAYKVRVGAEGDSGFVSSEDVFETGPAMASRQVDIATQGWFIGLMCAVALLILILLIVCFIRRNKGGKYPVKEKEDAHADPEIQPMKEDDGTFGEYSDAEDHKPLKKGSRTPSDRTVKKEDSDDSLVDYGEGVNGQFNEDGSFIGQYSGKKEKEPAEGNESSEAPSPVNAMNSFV

NrCAM mutant Asp84Ala = molecular target: T2, NrCAM mutant Asp84Ala (mouse, UniProt Q810U4 30-1256, Asp^84Ala)
T2 sequence (looked up): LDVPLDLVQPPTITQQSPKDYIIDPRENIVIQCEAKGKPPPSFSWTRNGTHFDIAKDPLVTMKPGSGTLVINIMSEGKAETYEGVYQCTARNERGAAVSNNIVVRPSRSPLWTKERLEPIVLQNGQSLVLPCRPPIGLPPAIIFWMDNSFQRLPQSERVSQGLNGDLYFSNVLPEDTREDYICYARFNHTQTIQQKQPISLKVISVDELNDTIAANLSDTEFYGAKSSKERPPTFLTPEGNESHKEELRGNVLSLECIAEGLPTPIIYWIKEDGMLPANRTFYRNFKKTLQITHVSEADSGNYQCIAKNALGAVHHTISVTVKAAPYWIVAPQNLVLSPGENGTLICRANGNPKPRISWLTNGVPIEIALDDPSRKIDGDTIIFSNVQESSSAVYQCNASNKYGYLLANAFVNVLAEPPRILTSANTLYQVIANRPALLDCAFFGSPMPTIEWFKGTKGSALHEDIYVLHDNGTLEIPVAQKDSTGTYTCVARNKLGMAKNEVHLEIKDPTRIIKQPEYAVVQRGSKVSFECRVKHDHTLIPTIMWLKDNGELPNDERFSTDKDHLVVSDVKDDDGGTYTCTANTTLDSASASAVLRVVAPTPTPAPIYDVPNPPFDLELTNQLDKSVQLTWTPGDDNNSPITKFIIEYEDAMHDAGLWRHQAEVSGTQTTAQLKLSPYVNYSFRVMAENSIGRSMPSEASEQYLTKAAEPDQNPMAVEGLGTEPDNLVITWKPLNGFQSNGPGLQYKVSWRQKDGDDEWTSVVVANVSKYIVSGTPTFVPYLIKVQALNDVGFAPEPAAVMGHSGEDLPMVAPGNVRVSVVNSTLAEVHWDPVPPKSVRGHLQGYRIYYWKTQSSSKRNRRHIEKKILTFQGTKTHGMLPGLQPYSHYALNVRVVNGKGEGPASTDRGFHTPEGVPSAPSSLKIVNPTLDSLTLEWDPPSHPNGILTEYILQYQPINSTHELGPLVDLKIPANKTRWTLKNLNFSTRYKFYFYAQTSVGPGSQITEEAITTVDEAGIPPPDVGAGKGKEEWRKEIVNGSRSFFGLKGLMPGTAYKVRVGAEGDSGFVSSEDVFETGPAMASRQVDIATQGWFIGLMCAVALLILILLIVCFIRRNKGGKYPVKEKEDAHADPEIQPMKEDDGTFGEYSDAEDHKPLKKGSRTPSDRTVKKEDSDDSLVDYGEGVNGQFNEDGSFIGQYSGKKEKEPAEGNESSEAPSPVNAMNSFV

NrCAM mutant Lys85Glu = molecular target: T3, NrCAM mutant Lys85Glu (mouse, UniProt Q810U4 30-1256, Lys^85Glu)
T3 sequence (looked up): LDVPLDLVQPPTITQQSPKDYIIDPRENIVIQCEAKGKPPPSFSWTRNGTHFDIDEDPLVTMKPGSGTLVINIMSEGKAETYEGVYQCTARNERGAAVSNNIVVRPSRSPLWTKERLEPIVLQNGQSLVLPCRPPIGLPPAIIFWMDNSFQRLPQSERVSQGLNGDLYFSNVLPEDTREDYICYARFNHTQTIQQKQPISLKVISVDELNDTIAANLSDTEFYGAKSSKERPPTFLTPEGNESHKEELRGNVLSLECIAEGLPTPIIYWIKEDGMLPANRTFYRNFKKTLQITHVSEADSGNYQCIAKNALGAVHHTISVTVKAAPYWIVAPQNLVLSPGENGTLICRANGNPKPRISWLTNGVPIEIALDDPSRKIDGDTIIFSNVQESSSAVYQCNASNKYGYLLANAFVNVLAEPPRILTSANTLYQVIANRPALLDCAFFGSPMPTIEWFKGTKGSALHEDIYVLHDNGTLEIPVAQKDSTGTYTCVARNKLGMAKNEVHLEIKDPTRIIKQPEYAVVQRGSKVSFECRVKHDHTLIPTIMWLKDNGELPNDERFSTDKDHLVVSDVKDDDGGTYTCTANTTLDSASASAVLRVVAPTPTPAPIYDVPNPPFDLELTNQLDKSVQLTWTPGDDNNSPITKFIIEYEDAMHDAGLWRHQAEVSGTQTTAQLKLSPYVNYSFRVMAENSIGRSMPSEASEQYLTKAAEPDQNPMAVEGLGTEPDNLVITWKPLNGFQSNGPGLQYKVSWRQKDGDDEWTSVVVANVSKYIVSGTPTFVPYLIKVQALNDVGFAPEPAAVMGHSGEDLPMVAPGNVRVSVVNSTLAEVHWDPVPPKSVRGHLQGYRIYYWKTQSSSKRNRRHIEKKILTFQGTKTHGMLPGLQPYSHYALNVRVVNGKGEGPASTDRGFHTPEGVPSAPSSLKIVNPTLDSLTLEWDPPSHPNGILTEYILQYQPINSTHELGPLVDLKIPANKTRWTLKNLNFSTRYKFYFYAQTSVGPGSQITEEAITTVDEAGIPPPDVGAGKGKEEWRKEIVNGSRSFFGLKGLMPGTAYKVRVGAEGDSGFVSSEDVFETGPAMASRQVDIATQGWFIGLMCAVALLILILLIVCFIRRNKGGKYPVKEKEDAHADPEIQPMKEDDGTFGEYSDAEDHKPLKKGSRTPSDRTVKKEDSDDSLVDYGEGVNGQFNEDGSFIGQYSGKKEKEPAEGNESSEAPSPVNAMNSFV

[1] = molecular target: T4, NrCAM, wild type (mouse NrCAM splice variant 1 in pCMV6) (mouse, UniProt Q810U4 30-1256)
T4 sequence (looked up): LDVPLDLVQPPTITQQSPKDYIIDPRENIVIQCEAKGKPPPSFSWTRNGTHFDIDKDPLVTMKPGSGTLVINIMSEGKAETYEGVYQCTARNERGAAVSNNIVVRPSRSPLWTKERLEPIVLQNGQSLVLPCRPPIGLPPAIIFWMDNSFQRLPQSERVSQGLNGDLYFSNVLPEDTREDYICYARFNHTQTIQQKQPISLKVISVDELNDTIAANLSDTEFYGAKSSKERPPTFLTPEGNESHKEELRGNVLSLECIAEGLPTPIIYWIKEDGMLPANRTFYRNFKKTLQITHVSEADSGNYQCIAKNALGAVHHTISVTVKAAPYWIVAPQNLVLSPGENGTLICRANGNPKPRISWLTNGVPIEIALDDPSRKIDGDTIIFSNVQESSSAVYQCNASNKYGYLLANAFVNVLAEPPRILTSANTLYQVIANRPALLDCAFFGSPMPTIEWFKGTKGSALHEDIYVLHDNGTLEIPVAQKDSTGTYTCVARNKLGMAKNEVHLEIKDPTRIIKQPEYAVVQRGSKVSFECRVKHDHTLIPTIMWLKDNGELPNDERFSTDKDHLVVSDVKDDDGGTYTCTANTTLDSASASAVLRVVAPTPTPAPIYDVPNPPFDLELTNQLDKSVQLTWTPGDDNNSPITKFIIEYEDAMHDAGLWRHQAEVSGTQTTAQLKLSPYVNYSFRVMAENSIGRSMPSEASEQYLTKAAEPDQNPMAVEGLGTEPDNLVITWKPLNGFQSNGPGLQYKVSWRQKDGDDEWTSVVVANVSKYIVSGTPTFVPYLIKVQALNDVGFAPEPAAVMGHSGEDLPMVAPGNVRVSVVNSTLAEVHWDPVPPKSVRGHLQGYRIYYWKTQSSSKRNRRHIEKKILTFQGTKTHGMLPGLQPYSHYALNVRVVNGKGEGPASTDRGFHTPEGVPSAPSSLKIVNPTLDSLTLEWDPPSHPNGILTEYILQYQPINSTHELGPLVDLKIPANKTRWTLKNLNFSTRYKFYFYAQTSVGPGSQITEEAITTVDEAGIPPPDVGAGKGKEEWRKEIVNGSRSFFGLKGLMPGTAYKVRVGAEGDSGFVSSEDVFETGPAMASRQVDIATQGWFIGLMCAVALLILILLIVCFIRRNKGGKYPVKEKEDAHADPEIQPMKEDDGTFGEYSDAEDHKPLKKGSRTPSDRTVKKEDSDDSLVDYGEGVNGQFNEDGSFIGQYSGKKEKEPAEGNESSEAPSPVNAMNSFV

B1: Neuropilin-2, wild type, with an N-terminal FLAG tag (mouse Npn2 in pcDNA3.1) (receptor)
chain: not shown
- ratio of Npn2/NrCAM in the immunoprecipitate, normalized to WT Npn2/NrCAM (NrCAM mutant Asp82Arg): 0.17 relative to WT
- ratio of Npn2/NrCAM in the immunoprecipitate, normalized to WT Npn2/NrCAM (NrCAM mutant Asp84Ala): 0.607 relative to WT
- ratio of Npn2/NrCAM in the immunoprecipitate, normalized to WT Npn2/NrCAM (NrCAM mutant Lys85Glu): 0.181 relative to WT

B2: Neuropilin-2 mutant Arg31Glu, with an N-terminal FLAG tag (receptor)
chain: not shown
- ratio of Npn2/NrCAM in the immunoprecipitate, normalized to WT Npn2/NrCAM [1]: 0.496 relative to WT
